The campaign covered roughly 48,000 compounds. About 550 (1.1%) were called active. Not shown: some 4% with an inconclusive outcome. Rule as the data show it: active = potency below about 15 µM; inconclusive = mostly about 16 µM to 33 µM; inactive = weaker than that. Some of the results follow.
Molecular target: Lysosomal acid glucosylceramidase (Homo sapiens) (UniProt P04062)
Assay: Glucocerebrosidase;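 also: the screen sought inhibitors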
Conditions: purified enzyme, resorufin glucoside fluorescence (screen aimed at inhibitors), 20 min
In short: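 Normal human glucocerebrosidase (0.2 nM final) was assayed with resorufin β-D-glucopyranoside (30 uM final) in 50mM citric acid/KH2PO4, 10mM sodium taurocholate, 0.01% tween-20, pH 5.9. Compounds were titrated; fluorescence (Ex 548, Em 600) read after 20 min at RT.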
Potency is read from the fitted curve at half-maximal effect.

Chain of UniProt P04062 (P04062 whole entry, looked up): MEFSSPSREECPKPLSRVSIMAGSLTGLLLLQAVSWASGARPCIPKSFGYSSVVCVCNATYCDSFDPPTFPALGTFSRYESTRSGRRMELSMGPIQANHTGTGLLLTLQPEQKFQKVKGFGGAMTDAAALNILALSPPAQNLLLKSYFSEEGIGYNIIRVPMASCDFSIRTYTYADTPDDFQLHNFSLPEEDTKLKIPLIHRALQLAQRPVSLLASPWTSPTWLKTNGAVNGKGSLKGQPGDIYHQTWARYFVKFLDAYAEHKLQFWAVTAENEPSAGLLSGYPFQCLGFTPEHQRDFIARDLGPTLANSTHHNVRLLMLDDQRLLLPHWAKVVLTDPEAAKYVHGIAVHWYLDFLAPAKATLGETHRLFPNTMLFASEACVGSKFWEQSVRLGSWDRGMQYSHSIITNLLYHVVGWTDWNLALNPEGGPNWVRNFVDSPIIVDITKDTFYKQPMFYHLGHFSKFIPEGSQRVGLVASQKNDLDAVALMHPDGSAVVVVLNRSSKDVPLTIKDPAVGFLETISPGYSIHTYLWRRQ

Potency, inactive:
CCOC(=O)C1=C(CSc2n[nH]c(N)n2)NC(=O)NC1C (stereo not given) > 76.9 µM
COc1ccc(CNc2nc3c(c(=O)[nH]c(=O)n3C)n2CCCc2ccccc2)cc1 > 76.9 µM
O=C(c1nnc(-c2ccncc2)o1)c1ccccc1Cl > 76.9 µM
Nc1nonc1C(=O)OCC(=O)N1CCOCC1 > 76.9 µM
CCOCCn1c(SCCCc2ccccc2)nc2c1c(=O)[nH]c(=O)n2C > 76.9 µM
CC1(C)OC(=O)C(=CNc2cccc(O)c2)C(=O)O1 > 76.9 µM
O=C(CN(Cc1ccco1)C(=O)Cn1nnc(-c2ccc(F)cc2)n1)NC1CCCC1 > 76.9 µM
CC(C)N(Cc1cc2ccccc2[nH]c1=O)C(=O)C1CCCCC1 > 76.9 µM
O=C(CSC1=NCCS1)NC1CCCCC1 > 76.9 µM
CCOC(=O)C1=C(N)n2c(s/c(=C\c3cccnc3)c2=O)=C(C#N)C1c1cccnc1 (stereo not given) > 76.9 µM
CC1CC(C)CN(CCCNC(=O)CNC(=O)Cn2ccc3ccccc3c2=O)C1 (stereo not given) > 76.9 µM
O=C(O)CN1CCNCC1 > 76.9 µM
CCc1ccc(NC(=O)CSc2nnc(-c3ccccn3)n2C)cc1 > 76.9 µM
CN(C)c1nc(N)nc(CSc2nnnn2-c2cccc3ccccc23)n1 > 76.9 µM
CNC(=O)CSc1nnc(-c2ccc(S(=O)(=O)N3CCCC3)cc2)n1-c1cccc(C)c1C > 76.9 µM
O=c1/c(=C/c2cccc3ccccc23)sc2ncnn12 > 76.9 µM
CC(C)N1CC2=C(OC(N)=C(C#N)C2c2cccnc2)/C(=C/c2cccnc2)C1 (stereo not given) > 76.9 µM
Cc1ccc(N2CCN(C(=O)C3CCN(S(=O)(=O)c4cccc5nsnc45)CC3)CC2C)cc1 (stereo not given) > 76.9 µM
O=C1NC(c2ccccc2)C(C(=O)c2cccs2)=C1O (stereo not given) > 76.9 µM
CCn1c(CCNC(=O)c2ccc(OC)c(OC)c2)nc2ccccc21 > 76.9 µM
COc1ccc2c(CCNC(=O)c3ccco3)c[nH]c2c1 > 76.9 µM
O=C(CCCNS(=O)(=O)c1cccc2nsnc12)NCc1ccc(F)cc1 > 76.9 µM
O=C(c1ccco1)N1CCN(C(=O)c2cccn3c(=O)c4c5c(sc4nc23)CCCC5)CC1 > 76.9 µM
O=C(NCc1ccccc1F)c1cccs1 > 76.9 µM
CC1(C)N=C(c2ccc(Cl)cc2)C(=O)N1 > 76.9 µM
COc1ccc(S(=O)(=O)CCC(=O)N2CC(=O)N(CCc3ccccc3)C(=O)C2)cc1 > 76.9 µM
COC(=O)c1nc2n(n1)C(c1ccc(OC)c(OC)c1OC)C1=C(CCCC1=O)N2 (stereo not given) > 76.9 µM
O=C(NCCCN1CCOCC1)c1cc2cc(Br)ccc2oc1=O > 76.9 µM
Cc1ccc(-n2cnnn2)c(S(=O)(=O)N2CCOCC2)c1 > 76.9 µM
Cc1ccc(CN2C(=O)CCC2C(=O)NCCN2CCN(c3cccc(Cl)c3)CC2)cc1 (stereo not given) > 76.9 µM
CC1CCN(C(=O)CN2C(=O)C(C)(C)Oc3ccc(C(=O)NC4CCCC4)cc32)CC1 > 76.9 µM
c1csc(C(c2nnnn2C2CCCC2)N2CCOCC2)c1 (stereo not given) > 76.9 µM
COC(=O)Cc1ccc(NC(=O)c2cccs2)cc1 > 76.9 µM
COc1ccc(CCNC(=O)CSc2nnc(CNC(=O)c3cccs3)o2)cc1OC > 76.9 µM
CCN(CC)CCNCc1ccc(-c2ccc(Cl)cc2)o1 > 76.9 µM
Cn1nc(-c2ccc(C(=O)NCC3CCCO3)cc2)c2ccccc2c1=O (stereo not given) > 76.9 µM
CCC(c1nnc(SCC(=O)Nc2ccc(C(=O)Nc3ccccc3OC)cc2)o1)N(C)C (stereo not given) > 76.9 µM
COc1cc(C(=O)N(CCCO)Cc2cc3ccc(C)c(C)c3[nH]c2=O)cc(OC)c1OC > 76.9 µM
CC(Sc1nnnn1C)C(=O)Nc1ccc(N2CCOCC2)cc1 (stereo not given) > 76.9 µM
CCCn1c(SCC(=O)N2CCN(S(=O)(=O)c3ccc(Cl)cc3)CC2)n[nH]c1=O > 76.9 µM
CC1CCCC(C)N1C(=O)COC(=O)c1ccc2c(c1)OCO2 (stereo not given) > 76.9 µM
Cc1ccc(N2CC(C(=O)Nc3ccc4c(c3)OCCO4)CC2=O)cc1 (stereo not given) > 76.9 µM
O=C(Nc1ccc2c(c1)CCC2)C1CCN(c2ncccn2)CC1 > 76.9 µM
CCS(=O)(=O)N1CCCC(C(=O)NCCN2CCC(Cc3ccccc3)CC2)C1 (stereo not given) > 76.9 µM
COc1nc2ccccc2c(=O)n1OCC(C)C > 76.9 µM

From PubChem BioAssay AID360 (National Center for Advancing Translational Sciences (NCATS), 2006)
